Results as given in publication PMC7819943, “Rice protein-binding microarrays: a tool to detect cis-acting elements near promoter regions in rice”.
The list shows a part of the results.

Each sequence was assayed against T1, OsWOX13 (Oryza sativa, UniProt Q5QMM3 1-267) (assay: protein-binding microarray (RPBM); PBS, 2% BSA, 51.3 ng/ul salmon testes DNA, 50 uM zinc acetate, 200 nM TF, 25 C, 1 h; high values mean tight binding). Conditions: protein: recombinant; tags: N-terminal polyhistidine and DsRed monomer fusion (pET32a); label: CyDye5-dUTP incorporated in the synthesized complementary strand; 3' TTTTT single-stranded linker to array surface; dsDNA, one strand shown.
T1 sequence: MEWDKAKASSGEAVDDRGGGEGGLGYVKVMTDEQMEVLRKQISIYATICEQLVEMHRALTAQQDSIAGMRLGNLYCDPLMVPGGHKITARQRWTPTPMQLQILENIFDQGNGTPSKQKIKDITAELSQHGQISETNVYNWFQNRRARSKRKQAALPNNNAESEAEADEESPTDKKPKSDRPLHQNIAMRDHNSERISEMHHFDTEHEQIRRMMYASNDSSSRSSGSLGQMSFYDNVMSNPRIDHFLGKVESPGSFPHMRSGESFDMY
Method in brief: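 Using Ni–NTA, transcription factors fused N-terminally to polyhistidine and DsRed were purified after expression in E. coli BL21-CodonPlus. These were incubated at 200 nM with a blocked, double-stranded custom Agilent array for 1 h at 25 °C in a buffer containing 50 µM zinc acetate, and the array was washed. The binding signal is per-feature fluorescence intensity (arbitrary units) on an Axon 4000B scanner.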

Sequence	binding signal
TCCAATCATTGCAGGATAGATGCCGTCGTCTTCTTGGAGACGGAGTCACCTAGTGCAG	13800 fluorescence intensity (a.u.)
CAAATTGAGAGAAACATGCAGATTGAGCATGATTAGGGTACGGAGTCACCTAGTGCAG	22600 fluorescence intensity (a.u.)
TGGGCTCCAATTTCAATTTCGATTTGAATTGCAATTTCGACGGAGTCACCTAGTGCAG	4960 fluorescence intensity (a.u.)
ATGATGGTCGTTTAATTCTTCAATTCAATTTATTTGGTTGCGGAGTCACCTAGTGCAG	4090 fluorescence intensity (a.u.)
TGTTGATGAGAAGTACTACTACATTATCTGGAAACTCTGCCGGAGTCACCTAGTGCAG	7530 fluorescence intensity (a.u.)
TTCTGAATTATGGATGACAAAATTTGATGAAAATCACACGCGGAGTCACCTAGTGCAG	8250 fluorescence intensity (a.u.)
CGGTCCAATTGTTGATTTAAAAGATTAGGTCGGATAGATCCGGAGTCACCTAGTGCAG	8490 fluorescence intensity (a.u.)
TTGGAAATCCAATCTATTTTCTCGTATTCGTGTGGGAAATCGGAGTCACCTAGTGCAG	3660 fluorescence intensity (a.u.)
GTTTGATGAGTCCGGAATAGCATATAGCACATGGAATTGGCGGAGTCACCTAGTGCAG	3510 fluorescence intensity (a.u.)
TCTAACTTGGTGACAAATTGAGGGATGTAAAGTGCACTTTCGGAGTCACCTAGTGCAG	5210 fluorescence intensity (a.u.)
CTAAATGATTACTTATGAAAGTTATATACTAAAGACCATGCGGAGTCACCTAGTGCAG	39500 fluorescence intensity (a.u.)
AAGTGTGATTTCCTCGTTAGTTCGATACGTTTCACGTTTGCGGAGTCACCTAGTGCAG	7910 fluorescence intensity (a.u.)
TCGTCTCAATCAACGCAAACCACGGAAATACTCTGGCAAGCGGAGTCACCTAGTGCAG	26700 fluorescence intensity (a.u.)
ATCTCGCCTCTTTGCGCTTTCGCTGGAACCCTATTTCTCCCGGAGTCACCTAGTGCAG	3350 fluorescence intensity (a.u.)
GAAACCCATCCAATTAGTCAGATAGAGATATCCTGCCTTCCGGAGTCACCTAGTGCAG	5170 fluorescence intensity (a.u.)
TCGTTAAACTTGAGTTAATAGGATTACTATCCCGTTAAAACGGAGTCACCTAGTGCAG	6140 fluorescence intensity (a.u.)
TTGAATGGGAGGTGATTAGTGAGATAAGTATTACTCTAGACGGAGTCACCTAGTGCAG	3220 fluorescence intensity (a.u.)
TACAATTAGACAATTAATTATTTCGGTAGAGACTGGAAACCGGAGTCACCTAGTGCAG	36500 fluorescence intensity (a.u.)
CACATCGTTTCAATTTCAATCAAACTTCCAATGTTGACGTCGGAGTCACCTAGTGCAG	8280 fluorescence intensity (a.u.)
ATACATCCACCAATCACCATGCAAGTTACCCTCCATCCAGCGGAGTCACCTAGTGCAG	3730 fluorescence intensity (a.u.)
ATACTTATATGTAAATTGAATATATTCACTGACAAGATGCCGGAGTCACCTAGTGCAG	7940 fluorescence intensity (a.u.)

Sequence	binding signal
GGTCAAAACTGGGATTAAATTTGTGAGGGTGGTGGCCTTGCGGAGTCACCTAGTGCAG	9940 fluorescence intensity (a.u.)
GAGAGATTGATCAGCAGCTGGTTCATATTGCATTTGAATACGGAGTCACCTAGTGCAG	20600 fluorescence intensity (a.u.)
AACTGATTAGACCAATCAAGTACAGACCAAGGAGCATCATCGGAGTCACCTAGTGCAG	20900 fluorescence intensity (a.u.)
AAATTTAATATTGAAAATTTAAATTTTGGATGATAAGCATCGGAGTCACCTAGTGCAG	4150 fluorescence intensity (a.u.)
AACTAATCTTTAACTTATAATTTCTCATATACTATAATGTCGGAGTCACCTAGTGCAG	5510 fluorescence intensity (a.u.)
CTATTAAATTAGAGAATAACTTCAAAAGCAATTATTGAGACGGAGTCACCTAGTGCAG	6740 fluorescence intensity (a.u.)
CCTCATCCCTGATTGTGATTTTCTTTCCACACCACCCGGACGGAGTCACCTAGTGCAG	19500 fluorescence intensity (a.u.)
TCCCCAAACATGTCCTAATTAAGACTCTCAAGGAGTAGTACGGAGTCACCTAGTGCAG	4300 fluorescence intensity (a.u.)
TTCAAAATTGATATTATTACACAAGCTATATTGAGTTATTCGGAGTCACCTAGTGCAG	11500 fluorescence intensity (a.u.)
TTCCATGATTTCTTGGTGATCCGCTTTGCCAATGCAAGTGCGGAGTCACCTAGTGCAG	5310 fluorescence intensity (a.u.)
AAATAATTGATATTGTAAGTGATCAATCTCAGTGCTTTTCCGGAGTCACCTAGTGCAG	39300 fluorescence intensity (a.u.)
CGCATGGGATAATCAATTATCCCGTGCGGTCCACTTAACCCGGAGTCACCTAGTGCAG	6640 fluorescence intensity (a.u.)
TTTAAGATGATCAGATTTCTAATTGCAGTTCACCTTAACTCGGAGTCACCTAGTGCAG	7420 fluorescence intensity (a.u.)
TTCAAGTTTGATTTGTGCTAAACAAGACCAATGTGCTAGACGGAGTCACCTAGTGCAG	5640 fluorescence intensity (a.u.)
TTTGAAATTGCTACATCAACCAATTATGGCGTTGTCTTGGCGGAGTCACCTAGTGCAG	8250 fluorescence intensity (a.u.)
CTAAAATTTAAATTTTAAACCTTAGTTTTAGAGTTGATTTCGGAGTCACCTAGTGCAG	18500 fluorescence intensity (a.u.)
AATCAACTAACTAATCATGGGATTAACCAAAACTAATTCTCGGAGTCACCTAGTGCAG	3800 fluorescence intensity (a.u.)
ACTTTAATTTACAACTATATCTAGATTCATTAACATCTATCGGAGTCACCTAGTGCAG	22100 fluorescence intensity (a.u.)
ATATGTAATTTGTTTTGTTATTAGACTATGTTTAATAATTCGGAGTCACCTAGTGCAG	11200 fluorescence intensity (a.u.)
ACGATTGAAATGTAATGTACGTCCCATAGTTTCGCAGTGGCGGAGTCACCTAGTGCAG	24900 fluorescence intensity (a.u.)
AGACAAAATTATTATGGAAATATATTCAATTATTGATTTGCGGAGTCACCTAGTGCAG	6760 fluorescence intensity (a.u.)
